{"source": "PubChem BioAssay AID504832", "about": "(National Center for Advancing Translational Sciences (NCATS), 2011)", "note": "The campaign covered roughly 310,000 compounds. About 18,000 (5.8%) were called active. This list was built around the results that the source calls inconclusive (neither active nor inactive); the mix of calls is not that of the screen. The call rests on the fitted dose curve; in most records, active means well fitted inhibition curve with a large enough effect; inconclusive means small, poorly fitted or top-dose-only effect, or another doubt; inactive means no such curve, though single readings can be large or run the other way. Potencies of inconclusive entries are left out as doubtful fits. On the % scale 0 is the no-effect control and ±100 the full control effect; potency means the concentration at half of the fitted maximal effect; tags describe the fitted curve by direction and shape.", "data": [{"test": "Primary qHTS for delayed death inhibitors of the malarial parasite plastid, 48 hour incubation", "conditions": "P. falciparum luciferase growth in erythrocytes; series mostly up to 28.7 µM; activity change, negative = inhibition: at the top concentration", "procedure,_shortened": "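Luminescence readout; reporter = integrated firefly luciferase in P. falciparum. RBC culture at 2% hematocrit, 0.1% parasitemia final, 37 C/5% CO2; decreased signal taken as growth inhibition.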", "values": [{"smiles": "O=C(NC1CC1)c1cccc(Nc2ccc(-c3ccc4c(c3)OCCO4)nn2)c1", "Potency": "inconclusive [inhibitor, single point]"}, {"smiles": "Cc1cccc(NC(=O)C2C3CCC4C(CCC32)C4(Cl)Cl)c1", "note": "(stereo unspecified)", "Potency": "inconclusive [inhibitor, partial curve, poor fit]"}, {"smiles": "CN1CCN(C2=Cc3ccccc3Sc3cc(F)ccc32)CC1", "Potency": "inconclusive [inhibitor, single point]"}, {"smiles": "COC(=O)N/N=C/c1sc(N2CCCCC2)nc1-c1cccs1", "Potency": "inconclusive [inhibitor, single point]"}, {"smiles": "CCOc1ccc(S(=O)(=O)Nc2cccc(C(=O)NCC3(N4CCCCC4)CCCCC3)c2)cc1", "Potency": "active: 14.7 µM"}, {"smiles": "COc1ccc(C2NC(c3ccc(OC)cc3OC)C(C)C(=O)C2C)c(OC)c1", "note": "(stereo unspecified)", "Potency": "inconclusive [inhibitor, partial curve, poor fit]"}, {"smiles": "Cc1ccc(OCc2cc(C(=O)NCc3ccc(OC(F)(F)F)cc3)no2)cn1", "activity change, negative = inhibition": "inactive: -5.6%"}, {"smiles": "O=C(NNC(=O)c1ccccc1F)c1ccc(-n2cncn2)c([N+](=O)[O-])c1", "Potency": "inconclusive [inhibitor, partial curve, poor fit]"}, {"smiles": "CCOc1ccccc1CN1CCCC(C(=O)Nc2cccc(-n3cccn3)c2)C1", "note": "(stereo unspecified)", "Potency": "inconclusive [inhibitor, full curve]"}, {"smiles": "Cc1ccc(NC2CCCN(C(=O)c3cccc(-c4ncc[nH]4)c3)C2)cc1C", "note": "(stereo unspecified)", "Potency": "inconclusive [inhibitor, single point]"}, {"smiles": "CN(c1ccccc1)S(=O)(=O)c1ccc(NC(=O)c2cccs2)cc1", "Potency": "inconclusive [inhibitor, single point]"}, {"smiles": "O=C(CNC1CCCC1)Nc1cc(Cl)ccc1[N+](=O)[O-]", "Potency": "inconclusive [inhibitor, single point]"}, {"smiles": "COCCn1c(SCC(=O)Nc2cccc(F)c2)nc2c(c1=O)SCC2", "Potency": "inconclusive [inhibitor, single point]"}, {"smiles": "Cc1cc(NCc2ccccc2)c2ccccc2n1", "Potency": "active: 3.29 µM"}, {"smiles": "OC(CN1CCN(c2ccccn2)CC1)Cn1c2ccc(Cl)cc2c2cc(Cl)ccc21", "note": "(stereo unspecified)", "Potency": "active: 1.65 µM"}, {"smiles": "COc1cc(O)oc1C=Nc1ccc(Cl)cc1Cl", "Potency": "inconclusive [inhibitor, full curve, poor fit]"}, {"smiles": "O=C(NCCOc1ccc(Cl)cc1)c1ccco1", "activity change, negative = inhibition": "inactive: -3.26%"}, {"smiles": "Cc1ccc(C)c(Cn2nnc3c(=O)[nH]c(C4CCCN(C(=O)c5ccco5)C4)nc32)c1", "note": "(stereo unspecified)", "Potency": "inconclusive [inhibitor, single point]"}, {"smiles": "O=C(c1ccoc1)N1CCC2(CC1)Oc1ccc(Cl)cc1C(=O)C21CC(c2ccc(Cl)cc2)=NO1", "note": "(stereo unspecified)", "Potency": "inconclusive [inhibitor, single point]"}, {"smiles": "Cc1ccc(O)c(-c2cc(C(=O)NCc3ccccc3)[nH]n2)c1", "Potency": "inconclusive [inhibitor, single point]"}, {"smiles": "Cn1c(-c2ccc[nH]c2=O)nc2cc(Cl)ccc21", "Potency": "inconclusive [inhibitor, full curve, poor fit]"}, {"smiles": "COc1ccc(Cc2n[nH]c(=S)n2N)cc1OC", "activity change, negative = inhibition": "inactive: 7.1%"}, {"smiles": "COc1ccccc1/C=C/c1nc(S(=O)(=O)c2ccccc2)c(N(C)C)o1", "Potency": "inconclusive [inhibitor, single point]"}, {"smiles": "O=C(OCCCOc1ccc(F)cc1)c1ccc(O)cc1O", "activity change, negative = inhibition": "inactive: 24.4%"}, {"smiles": "COc1cc(Cl)c(C)cc1NC(=O)CN1CCN(C(=O)C2CC2)CC1", "Potency": "inconclusive [inhibitor, single point]"}, {"smiles": "O=C(/C=C/c1ccccn1)c1cc(Br)ccc1O", "Potency": "inconclusive [inhibitor, partial curve, poor fit]"}, {"smiles": "c1ccc(-c2noc(CN3CCc4sccc4C3)n2)cc1", "activity change, negative = inhibition": "inactive: 18.4%"}, {"smiles": "COc1ccccc1N1CCN(C(=O)c2ccc3c(=O)n4c(nc3c2)CCCCC4)CC1", "Potency": "inconclusive [inhibitor, single point]"}, {"smiles": "COc1ccc(N2CCN(C3CCCN(C(=O)CN4CCOC4=O)C3)CC2)cc1", "note": "(stereo unspecified)", "activity change, negative = inhibition": "inactive: 5.48%"}, {"smiles": "O=C(Nc1ccc2oc(=O)ccc2c1)c1ccc(-c2cccc([N+](=O)[O-])c2)o1", "Potency": "active: 4.15 µM"}, {"smiles": "CCOC(=O)c1c(CSC(=N)N)n(-c2ccccc2)c2cc(Br)c(OC(C)=O)cc12", "Potency": "active: 2.94 µM"}, {"smiles": "COc1ccc(/C=N/Nc2ncnc3sc(C)c(C)c23)cc1", "activity change, negative = inhibition": "inactive: 27.4%"}, {"smiles": "Nc1nnc(-c2ccc(Cl)cc2)o1", "Potency": "inconclusive [inhibitor, single point]"}, {"smiles": "CCC1CCc2sc(C(=O)NCC3CCCO3)cc2C1", "note": "(stereo unspecified)", "activity change, negative = inhibition": "inactive: 224%"}, {"smiles": "C/C(=N\\NC(N)=S)c1cc(-c2ccccc2)c(-c2ccccc2)s1", "Potency": "active: 9.28 µM"}, {"smiles": "CSc1cccc(NC(=S)N2CCCN(Cc3ccc(F)cc3)C2)c1", "Potency": "inconclusive [inhibitor, partial curve, poor fit]"}, {"smiles": "N#Cc1cc(-c2ccccc2)cnc1Sc1ccc(Cl)cc1", "Potency": "inconclusive [inhibitor, full curve, poor fit]"}, {"smiles": "CC(C)(C)NC(=O)NC(=O)COC(=O)CCC1CCCC1", "activity change, negative = inhibition": "inactive: 2.85%"}, {"smiles": "COc1ccc(NC(=O)CN(C)C(=O)CNC(=O)c2ccc(C)s2)cc1", "activity change, negative = inhibition": "inactive: 28.6%"}, {"smiles": "C=CCn1c(=S)[nH]c2cc(C(=O)NCCc3ccc(S(N)(=O)=O)cc3)ccc2c1=O", "Potency": "inconclusive [inhibitor, single point]"}, {"smiles": "Cc1ccc2c(c1)CCCN2C(=O)CCc1nc2ccccc2c(=O)[nH]1", "Potency": "inconclusive [inhibitor, single point]"}, {"smiles": "CCn1c(SCc2ccccc2Cl)nc2ccccc21", "activity change, negative = inhibition": "inactive: 32.9%"}, {"smiles": "C[C@@]12C(=O)OC(=O)[C@]1(C)C1CCC2O1", "Potency": "active: 2.94 µM"}, {"smiles": "CCc1nnc(NC(=O)C2CCCCN2S(=O)(=O)c2ccccc2)s1", "note": "(stereo unspecified)", "Potency": "inconclusive [inhibitor, single point]"}, {"smiles": "CC(=O)C1C2c3ccccc3OC1(C)N=c1s/c(=C/c3cn(C)nc3C)c(=O)n12", "note": "(stereo unspecified)", "Potency": "inconclusive [inhibitor, single point]"}, {"smiles": "C=CC[n+]1cccc(-c2cc3ccc(C)cc3[nH]2)c1", "Potency": "inconclusive [inhibitor, partial curve]"}]}]}
